Data set [1] deals with T1, OATP1B3 (Homo sapiens, UniProt Q9NPD5).
T1 sequence (Q9NPD5 1-702): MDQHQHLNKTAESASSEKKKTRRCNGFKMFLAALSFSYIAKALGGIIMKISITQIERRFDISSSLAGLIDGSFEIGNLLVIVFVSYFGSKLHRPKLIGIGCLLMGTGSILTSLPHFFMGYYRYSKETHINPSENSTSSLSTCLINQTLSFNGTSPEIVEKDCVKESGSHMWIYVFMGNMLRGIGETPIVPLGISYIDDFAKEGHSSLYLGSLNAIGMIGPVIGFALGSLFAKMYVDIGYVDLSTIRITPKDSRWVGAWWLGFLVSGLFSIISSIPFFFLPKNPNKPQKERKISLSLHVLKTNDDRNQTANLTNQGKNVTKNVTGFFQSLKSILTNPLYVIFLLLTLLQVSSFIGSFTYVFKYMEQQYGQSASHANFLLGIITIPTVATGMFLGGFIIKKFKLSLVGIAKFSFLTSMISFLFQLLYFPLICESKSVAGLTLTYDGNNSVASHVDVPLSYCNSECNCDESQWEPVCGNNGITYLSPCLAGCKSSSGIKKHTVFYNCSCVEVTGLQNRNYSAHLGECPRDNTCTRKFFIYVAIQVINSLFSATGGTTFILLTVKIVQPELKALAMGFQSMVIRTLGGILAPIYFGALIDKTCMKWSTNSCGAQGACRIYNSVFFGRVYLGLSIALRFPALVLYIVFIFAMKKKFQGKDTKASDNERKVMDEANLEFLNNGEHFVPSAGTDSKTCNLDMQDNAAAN
Kind of data set: Transporter substrate study using HEK293-OATP1B3 cells.

In data set [2] the target is T1, OATP1B3. Kind of data set: cell-based.
In data set [3] the target is T1, OATP1B3. The note with it: 10 μM MPAG.

The structures appear in SMILES notation. Where two headings read alike, the source gives them in different places.

The source of these data is PMC11381307 (Frontiers in Pharmacology, 2024).

`C[C@]12CC[C@@H]3c4ccc(O)cc4CC[C@H]3[C@@H]1CC[C@@H]2O[C@@H]1O[C@H](C(=O)O)[C@@H](O)[C@H](O)[C@H]1O` [E217βG, Estradiol-17β-D-glucuronide]: the “uptake ratio (UR) of probe substrate mediated by OATP1B3” value on OATP1B3 [1] (without inhibitor, vs MOCK cells) came out at 12.1.
The compound `C[C@]12C=CC(=O)C=C1CC[C@@H]1[C@@H]2[C@@H](O)C[C@@]2(C)[C@H]1CC[C@]2(O)C(=O)CO` [prednisolone] came in with a 50% inhibitory concentration (IC50) against OATP1B3 [2] of 119 µM.
`CO[C@H]1/C=C/O[C@@]2(C)Oc3c(C)c(O)c4c(O)c(c(/C=N/N5CCN(C)CC5)c(O)c4c3C2=O)NC(=O)/C(C)=C\C=C\[C@H](C)[C@H](O)[C@@H](C)[C@@H](O)[C@@H](C)[C@H](OC(C)=O)[C@@H]1C` [rifampicin]: the “Relative net uptake rate of MPAG (% of NC), Mean” value on OATP1B3 [3] (0.1 μM) was 64.0 % of NC; at OATP1B3 [3] (1 μM), 37.9 % of NC; at OATP1B3 [3] (3 μM), 12.7 % of NC; on OATP1B3 [3] (10 μM), 6.48 % of NC; at OATP1B3 [3] (30 μM), 4.14 % of NC; on OATP1B3 [3] (100 μM), 6.49 % of NC. In addition, the IC50 at OATP1B3 [3] (read-out: IC50 value on OATP1B3-mediated uptake of MPAG) came out at 0.224 µM. Further, the “inhibition rate of OATP1B3-mediated MPAG uptake” value against OATP1B3 [1] (100 μM inhibitor, 10 μM MPAG) stood at 99.7%. In addition, the “inhibition rate of OATP1B3-mediated E217βG uptake” value against OATP1B3 [1] (rifampicin treatment, probe substrate E217βG) came to 92.7%.

One may read the IC50 as the concentration that inhibits the measured activity by half.
